Test results as given in PubChem BioAssay AID504332 (National Center for Advancing Translational Sciences (NCATS), 2011).
About 31,000 (8.9%) of roughly 350,000 compounds were called active. Inconclusive means that the source gave no clear call. Such entries were picked first, then a sample of the others. Calls follow the shape of the dose curve; as a rule, active = well fitted inhibition curve with a large enough effect; inconclusive = small, poorly fitted or top-dose-only effect; inactive = no such curve, though single readings can be large or run the other way. Where the call is inconclusive, the potency comes from a doubtful curve fit.

Target: Histone-lysine N-methyltransferase EHMT2 (Homo sapiens) (UniProt Q96KQ7)
Experiment: qHTS Assay for Inhibitors of Histone Lysine Methyltransferase G9a; also: nearly all actives have a fitted effect of over 75% in size
Details: G9a H3K9 monomethylation, AlphaScreen, 2 h; activity, negative = inhibition: at 59 µM (top of the series) unless noted
In short: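 Chemiluminescent proximity detection of H3K9 monomethylation, read after 10 min bead incubation in the dark. Reaction: 20 nM G9a, 500 nM biotin-H3K9 peptide, 20 uM SAM cofactor, 2 h, room temperature, following 15 min enzyme-compound preincubation.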
% is scaled to controls: 0 for no effect and ±100 for the full control effect; potency is read from the fitted curve at half-maximal effect; tags tell the direction and shape of the fitted curve.

UniProt Q96KQ7, sequence (Q96KQ7 whole entry, looked up): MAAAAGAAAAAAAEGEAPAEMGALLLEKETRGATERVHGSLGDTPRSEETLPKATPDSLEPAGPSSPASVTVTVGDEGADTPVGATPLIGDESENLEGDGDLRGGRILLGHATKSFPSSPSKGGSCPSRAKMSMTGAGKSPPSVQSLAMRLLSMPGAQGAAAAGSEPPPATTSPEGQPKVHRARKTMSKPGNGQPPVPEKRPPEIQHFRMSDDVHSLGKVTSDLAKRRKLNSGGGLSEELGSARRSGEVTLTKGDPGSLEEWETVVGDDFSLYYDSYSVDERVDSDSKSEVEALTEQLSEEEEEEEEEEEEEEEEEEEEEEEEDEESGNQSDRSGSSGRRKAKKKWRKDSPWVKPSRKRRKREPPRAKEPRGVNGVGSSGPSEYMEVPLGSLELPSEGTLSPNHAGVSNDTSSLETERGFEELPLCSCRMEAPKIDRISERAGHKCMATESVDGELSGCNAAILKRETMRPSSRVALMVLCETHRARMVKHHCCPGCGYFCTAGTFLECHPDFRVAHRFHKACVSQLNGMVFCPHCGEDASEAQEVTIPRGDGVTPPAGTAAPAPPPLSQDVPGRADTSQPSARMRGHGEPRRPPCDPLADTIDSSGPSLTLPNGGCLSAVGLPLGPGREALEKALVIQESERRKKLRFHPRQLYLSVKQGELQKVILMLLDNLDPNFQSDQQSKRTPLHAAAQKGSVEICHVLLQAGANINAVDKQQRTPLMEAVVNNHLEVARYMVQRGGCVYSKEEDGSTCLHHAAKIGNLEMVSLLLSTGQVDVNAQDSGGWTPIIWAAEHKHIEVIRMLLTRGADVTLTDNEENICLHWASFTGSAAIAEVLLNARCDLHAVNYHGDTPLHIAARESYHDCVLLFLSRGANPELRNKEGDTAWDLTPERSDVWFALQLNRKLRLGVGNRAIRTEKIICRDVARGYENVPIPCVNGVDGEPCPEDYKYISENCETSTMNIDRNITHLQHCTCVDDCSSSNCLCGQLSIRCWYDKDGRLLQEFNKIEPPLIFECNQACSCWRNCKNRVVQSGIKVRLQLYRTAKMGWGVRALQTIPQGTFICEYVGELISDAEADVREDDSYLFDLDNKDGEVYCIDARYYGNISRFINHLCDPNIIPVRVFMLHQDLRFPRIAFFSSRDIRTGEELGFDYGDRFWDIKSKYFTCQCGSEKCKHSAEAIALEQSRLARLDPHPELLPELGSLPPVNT

| Structure (SMILES) | activity, negative = inhibition | Potency |
| --- | --- | --- |
| CCOc1ccc(NC(=O)c2cc(CN3CCCC3)on2)cc1 | inactive: -13.6% |  |
| CCOC(=O)c1c(N)sc(C(N)=O)c1C |  | inconclusive: 25.1 µM [inhibitor, single point] |
| COc1ccc2nc(C)cc(Nc3ccc(N4CCN(C)CC4)cc3)c2c1 |  | active: 44.7 µM |
| COc1cc(-c2nc3cnccn3c2Nc2ccc3c(c2)OCCO3)ccc1O |  | inconclusive: 10 µM [inhibitor, partial curve] |
| OCc1c[nH]c(=S)n1CCOc1cccc(C(F)(F)F)c1 |  | inconclusive: 1 µM [inhibitor, single point] |
| COc1cccc(C(CC(=O)NCc2ccco2)NS(=O)(=O)c2ccc(C)cc2)c1OC (stereo not given) |  | inconclusive: 56.2 µM [inhibitor, partial curve, poor fit] |
| O=C(NCc1ccccc1)C(c1cccnc1)N(C(=O)c1ccccn1)c1ccccc1F (stereo not given) |  | inconclusive: 56.2 µM [inhibitor, single point] |
| CCCCn1c(N)c(N(CC)C(=O)c2ccc(C)cc2)c(=O)[nH]c1=O | inactive: 8.7% [at 102 µM] |  |
| CCCCCC(=O)Nc1cc(S(=O)(=O)N2CCOCC2)ccc1N1CCN(C)CC1 |  | inconclusive: 20 µM [inhibitor, partial curve] |
| COc1ccc(N=Nc2cnc(C)nc2-c2ccccc2)cc1 |  | active: 14.1 µM |
| COC(=O)C1=NN(c2ccccc2)C2(S1)S/C(=C\c1ccccc1)C(=O)N2c1ccccc1 (stereo not given) |  | inconclusive: 22.4 µM [inhibitor, partial curve, poor fit] |
| Cc1ccc2nc(Nc3ccc(Br)cc3)nc(-c3ccccc3)c2c1 | inactive: 47.6% |  |
| CC(C)S(=O)(=O)c1csc(NC(=O)Nc2ccc(Cl)cc2)c1Cl |  | inconclusive: 70.8 µM [inhibitor, partial curve, poor fit] |
| COc1ccc(OC)c(NC(=O)c2ccc(-c3nc(COc4ccccc4)c(C)o3)cc2)c1 |  | inconclusive: 3.16 µM [inhibitor, partial curve, poor fit] |
| CCN1CCN(c2ccc(S(=O)(=O)N3CCOCC3)cc2NC(=O)c2ccc(Cl)cc2Cl)CC1 |  | active: 12.6 µM |
| C=CCNC(=S)N/N=C(\C)c1cccnc1 | inactive: -5.44% [at 102 µM] |  |
| NC(=S)N/N=C/c1coc2cc(Br)ccc2c1=O | inactive: 3.1% [at 102 µM] |  |
| Cc1ccc(-c2nnn(Cc3nc4ccccc4s3)n2)cc1 |  | inconclusive: 1 µM [inhibitor, single point] |
| CNS(=O)(=O)c1ccc(C(=O)NCC(=O)NC(C)c2cccs2)cc1 (stereo not given) |  | inconclusive: 7.08 µM [inhibitor, single point] |
| O=S(=O)(NCCCN1CCOCC1)c1ccc2c(c1)OCCO2 | inactive: -0.531% [at 102 µM] |  |
